{"sequences": {"note": "Chains of the proteins cited; added tags and fusions are not shown.", "UniProt P40417": "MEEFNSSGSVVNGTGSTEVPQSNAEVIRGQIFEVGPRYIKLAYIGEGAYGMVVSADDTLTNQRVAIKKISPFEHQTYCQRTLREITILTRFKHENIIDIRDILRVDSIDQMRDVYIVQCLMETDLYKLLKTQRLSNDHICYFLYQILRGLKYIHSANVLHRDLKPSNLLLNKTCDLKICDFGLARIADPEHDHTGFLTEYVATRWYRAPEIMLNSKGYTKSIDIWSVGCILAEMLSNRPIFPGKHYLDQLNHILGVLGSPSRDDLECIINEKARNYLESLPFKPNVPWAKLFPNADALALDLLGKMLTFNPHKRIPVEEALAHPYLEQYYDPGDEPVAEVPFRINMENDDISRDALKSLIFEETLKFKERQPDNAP"}, "source": "paper PMC3062617", "key": {"[1]": {"molecular_target": "T1, GST-C1/324 (NH2-terminal half of Corto) (Drosophila) (UniProt P41046)", "T1 sequence": "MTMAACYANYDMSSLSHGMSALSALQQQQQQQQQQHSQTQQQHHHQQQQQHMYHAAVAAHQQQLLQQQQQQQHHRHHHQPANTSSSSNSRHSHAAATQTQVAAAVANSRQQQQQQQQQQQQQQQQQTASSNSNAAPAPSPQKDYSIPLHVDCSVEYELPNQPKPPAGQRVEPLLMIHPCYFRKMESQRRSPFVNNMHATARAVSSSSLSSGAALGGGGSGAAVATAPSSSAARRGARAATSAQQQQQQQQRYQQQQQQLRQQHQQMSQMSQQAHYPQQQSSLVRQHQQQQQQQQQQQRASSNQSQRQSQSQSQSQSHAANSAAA", "test": "pull-down; GST-Corto fragment fusion proteins on beads, in vitro translated 35S-ERK, autoradiography; only the target purified"}, "[2]": {"molecular_target": "T2, GST-C127/207 (Corto chromodomain) (Drosophila) (UniProt P41046)", "T2 sequence": "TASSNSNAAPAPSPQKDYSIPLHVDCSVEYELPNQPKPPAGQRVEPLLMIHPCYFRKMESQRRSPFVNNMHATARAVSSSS", "test": "pull-down; GST-Corto fragment fusion proteins on beads, in vitro translated 35S-ERK, autoradiography; only the target purified"}, "[3]": {"molecular_target": "T3, GST-C325/550 (COOH-terminal half of Corto) (Drosophila) (UniProt P41046)", "T3 sequence": "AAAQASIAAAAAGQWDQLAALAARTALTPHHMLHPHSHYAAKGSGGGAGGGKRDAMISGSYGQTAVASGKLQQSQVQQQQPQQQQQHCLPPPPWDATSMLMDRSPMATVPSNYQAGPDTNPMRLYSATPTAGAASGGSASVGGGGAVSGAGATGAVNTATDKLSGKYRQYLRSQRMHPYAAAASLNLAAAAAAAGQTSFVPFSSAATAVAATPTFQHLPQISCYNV", "test": "pull-down; GST-Corto fragment fusion proteins on beads, in vitro translated 35S-ERK, autoradiography; only the target purified"}, "[4]": {"molecular_target": "T4, GST-C418/503 (part of the two COOH-terminal globular domains of Corto) (Drosophila) (UniProt P41046)", "T4 sequence": "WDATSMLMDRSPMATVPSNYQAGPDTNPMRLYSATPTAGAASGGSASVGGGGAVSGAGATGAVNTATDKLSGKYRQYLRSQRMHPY", "test": "pull-down; GST-Corto fragment fusion proteins on beads, in vitro translated 35S-ERK, autoradiography; only the target purified"}, "ERK-FLAG (Drosophila) [5]": {"molecular_target": "ERK-FLAG (Drosophila) (UniProt P40417)", "test": "co-IP; nuclear extracts of S2 cells expressing tagged proteins; 500 ug extract, anti-FLAG IP (anti-HA mock IP), protein G-agarose beads, blot with anti-FLAG or anti-Myc"}, "ERK-FLAG (Drosophila) [6]": {"molecular_target": "ERK-FLAG (Drosophila) (UniProt P40417)", "test": "co-IP; cytoplasmic extracts of S2 cells expressing tagged proteins (two protocols of extraction); 500 ug extract, anti-FLAG IP (anti-HA mock IP), protein G-agarose beads"}, "[7]": {"molecular_target": "di-phosphorylated form of ERK (dP-ERK), endogenous (Drosophila (endogenous in embryos)) (UniProt P40417)", "test": "co-IP; endogenous proteins, total embryonic extract; monoclonal anti-dP-ERK E10 antibody covalently bound onto protein G-agarose beads; blot with rat anti-Corto antibodies"}}, "note": "These are yes or no findings as the source states them, for the method shown. In cells and extracts the contact can be indirect. Some binding calls cover weakened binding; strength is not graded here. For some of these results: Where a sequence is shown, tags or fusion partners need not be part of it."}
{"molecule": "in vitro translated 35S-ERK (from UniProt P40417 1-376) (enzyme)", "values": [{"measurement": "binding", "setting": "[1]", "value": "binds"}, {"measurement": "binding", "setting": "[2]", "value": "no binding"}, {"measurement": "binding", "setting": "[3]", "value": "binds"}, {"measurement": "binding", "setting": "[4]", "value": "no binding"}]}
{"molecule": "Corto-Myc (protein, UniProt P41046 1-550) MTMAACYANYDMSSLSHGMSALSALQQQQQQQQQQHSQTQQQHHHQQQQQHMYHAAVAAHQQQLLQQQQQQQHHRHHHQPANTSSSSNSRHSHAAATQTQVAAAVANSRQQQQQQQQQQQQQQQQQTASSNSNAAPAPSPQKDYSIPLHVDCSVEYELPNQPKPPAGQRVEPLLMIHPCYFRKMESQRRSPFVNNMHATARAVSSSSLSSGAALGGGGSGAAVATAPSSSAARRGARAATSAQQQQQQQQRYQQQQQQLRQQHQQMSQMSQQAHYPQQQSSLVRQHQQQQQQQQQQQRASSNQSQRQSQSQSQSQSHAANSAAAAAAQASIAAAAAGQWDQLAALAARTALTPHHMLHPHSHYAAKGSGGGAGGGKRDAMISGSYGQTAVASGKLQQSQVQQQQPQQQQQHCLPPPPWDATSMLMDRSPMATVPSNYQAGPDTNPMRLYSATPTAGAASGGSASVGGGGAVSGAGATGAVNTATDKLSGKYRQYLRSQRMHPYAAAASLNLAAAAAAAGQTSFVPFSSAATAVAATPTFQHLPQISCYNV", "values": [{"measurement": "binding", "setting": "ERK-FLAG (Drosophila) [5]", "value": "binds"}, {"measurement": "binding", "setting": "ERK-FLAG (Drosophila) [6]", "value": "no binding (condition: in cytoplasmic extract)"}]}
{"molecule": "Corto (endogenous, total embryonic protein extract) (protein, UniProt P41046 1-550) MTMAACYANYDMSSLSHGMSALSALQQQQQQQQQQHSQTQQQHHHQQQQQHMYHAAVAAHQQQLLQQQQQQQHHRHHHQPANTSSSSNSRHSHAAATQTQVAAAVANSRQQQQQQQQQQQQQQQQQTASSNSNAAPAPSPQKDYSIPLHVDCSVEYELPNQPKPPAGQRVEPLLMIHPCYFRKMESQRRSPFVNNMHATARAVSSSSLSSGAALGGGGSGAAVATAPSSSAARRGARAATSAQQQQQQQQRYQQQQQQLRQQHQQMSQMSQQAHYPQQQSSLVRQHQQQQQQQQQQQRASSNQSQRQSQSQSQSQSHAANSAAAAAAQASIAAAAAGQWDQLAALAARTALTPHHMLHPHSHYAAKGSGGGAGGGKRDAMISGSYGQTAVASGKLQQSQVQQQQPQQQQQHCLPPPPWDATSMLMDRSPMATVPSNYQAGPDTNPMRLYSATPTAGAASGGSASVGGGGAVSGAGATGAVNTATDKLSGKYRQYLRSQRMHPYAAAASLNLAAAAAAAGQTSFVPFSSAATAVAATPTFQHLPQISCYNV", "values": [{"measurement": "binding", "setting": "[7]", "value": "binds"}]}
